The values that follow come from patent US20250032631A1, “ANTI-SEZ6 ANTIBODY DRUG CONJUGATES” (AbbVie Inc., priority 2022, published 2025).

Test [1] concerns SW-1271. Briefly: SCLC cell viability assay (CellTiter-Glo), SW-1271. In kind it is cell-based. The settings on record: SW-1271 (SEZ6 negative), ADC treatment, 10 days; read-out: IC50, 50% growth inhibition. Here is the method: (§1) SCLC cell lines NCI-H526 (“H526”), NCI-H524 (“H524”), NCI-H146 (“H146”), NCI-H1963 (“H1963”) and SW-1271 were obtained from the American Type Culture Collection (ATCC). COR-L95 cells were obtained from Millipore Sigma (#96020733). SBC-5 cells were obtained from the Japanese Collection of Research Bioresources Cell Bank (JCRB).
(§2) SCLC cell lines (shown in Table 2, column 1) were plated in white 384-well plates (Corning® 3765) at 1,000-2,000 cells/30 μl RPMI-1640 base media containing 10% heat-inactivated FBS (fetal bovine serum). Cell plates were incubated overnight at 37° C. in 5% CO2. Using a Tecan D300e Digital Dispenser, a dose response using a stock concentration of ADC or solution containing Example 1G and DMSO (dimethyl sulfoxide) was applied to the cells on day 0 and incubated for an additional 10 days (ADCs) or 3 days (Example 1G) at 37°° C. in 5% CO2. Samples were run in duplicate. Cell viability was assessed with the CellTiter-Glo™ Luminescent Cell Viability Assay (Promega, #G7570) according to the manufacturer's instructions, with the exception that the plates were shaken for 30 minutes prior to reading. Luminescence was read on the BioTek Synergy Neo2, and data was analyzed using GraphPad Prism software.

For test [2], the system named is SCLC cell lines. Briefly: SCLC cell viability assay, summary over the cell line panel. In kind it is cell-based. Here is the method:
as §1
as §2, with “software. […]” for “software.”

Test [3] relates to H1963 tumor. Kind of test: H1963 cell-line derived xenograft (CDX) mouse model. In kind it is in vivo. Here is the method:
(§3) Adult female SCID-bg (Fox Chase SCID Beige Mouse) or SCID CB.17 (Fox Chase SCID Mouse) mice (approximately 22 g) were obtained from Charles River (Wilmington, MA). The mice were housed in groups of ten in solid bottom Plexiglas cages equipped with constant air circulation in a facility approved by Association for Assessment and Accreditation of Laboratory Animal Care International (AAALAC). Animals were tested in the light phase of a 12 hour light: dark cycle.
(§4) NCI-H69 (“H69”), NCI-H1963 (“H1963”), and NCI-H526 (“H526”) cells were obtained from the American Type Culture Collection (ATCC, Manassas, VA). The cells were maintained in 10% RPMI-1640 media. Cell culture media was obtained from Invitrogen (Carlsbad, CA) and supplemented with 10% fetal bovine serum (Hyclone, Logan, UT).
(§5) Five million cells were inoculated subcutaneously into the right flank of the mice on day 0. The injection volume was 0.1 mL composed of a 1:1 mixture of culture medium and matrigel (BD, Franklin Lakes, NJ). Tumors were size matched at approximately 200 mm^3. Therapy began 24 hours after size matching the tumors. There were four treatment groups: (1) vehicle; (2) ADC-1; (3) ADC-2; and (4) topotecan (ADC-1, ADC-2, and topotecan were formulated in vehicle). Each was administered once a day. Tumor volume was calculated two to three times weekly. Measurements of the length (L) and width (W) of the tumor were taken via electronic caliper and the volume was calculated according to the following equation: […]
(§6) Parameters of amplitude (TGImax) and durability (TGD) of therapeutic response were used to refer to the efficacy of the drug. TGImax is the maximum tumor growth inhibition during the experiment. Tumor growth inhibition (TGI) was calculated by 100*(1−Tv/Cv) where Tv and Cv are the mean tumor volumes of the treated and control groups, respectively. […] TGD was calculated by 100*(Tt/Ct−1) where Tt and Ct are the median time periods to reach 1 cm^3 of the treated and control groups, respectively.

Test [4] concerns LU95 SCLC PDX tumor. Kind of test: LU95 patient-derived xenograft (PDX) mouse model. In kind it is in vivo. The settings on record: LU95, single ip dose. Here is the method:
(§7) SCLC patient-derived xenograft (PDX) models were established from stage IV tumors as previously described (Anderson, et al. 2015 PLOS One; PMID: 25955027), and passaged in mice to generate sufficient cell numbers to inject single cell suspensions subcutaneously in lower right mammary fat pads of NOD/SCID immune compromised mice for an efficacy study. Once tumor cells were injected, tumor volumes were collected using a caliper to measure the length and width, and tumor volume was calculated using the formula of an ellipsoid (volume=length×width×width×0.5, where the width is shorter than the length; units: mm^3). After tumors reached a range of 90 to 300 mm^3, mice were randomized into treatment groups of five to ten mice per group, where each group had approximately the same average tumor volume. […] Efficacy was measured by monitoring tumor volume over time, and data were plotted in GraphPad Prism.
(§8) Parameters of amplitude (TGImax) and durability (TGD) of therapeutic response were used to refer to the efficacy of the drug. […] Tumor growth inhibition (TGI) was calculated by 100*(1−Tv/Cv) where Tv and Cv are the mean tumor volumes of the treated and control groups, respectively. […] TGD was calculated by 100*(Tt/Ct−1) where Tt and Ct are the median time periods to reach 1 cm^3 of the treated and control groups, respectively.
(Xenograft models place foreign cells or tissue in a host animal.)

Test [5] relates to SCLC xenografts (H1963, H526, LU95, LU149). Briefly: SCLC CDX and PDX xenograft models, summary. In kind it is in vivo, mouse. The following applies: topotecan one cycle approximating human clinical exposure; FIG. 3A-D. Here is the method: as §3
NCI-H69 (“H69”), NCI-H1963 (“H1963”), and NCI-H526 (“H526”) cells were obtained from the American Type Culture Collection (ATCC, Manassas, VA). The cells were maintained in 10% RPMI-1640 media. […]
Five million cells were inoculated subcutaneously into the right flank of the mice on day 0. […] Tumor volume was calculated two to three times weekly. Measurements of the length (L) and width (W) of the tumor were taken via electronic caliper and the volume was calculated according to the following equation: […]
as §8

Test [6] deals with NCI-H526. Kind of test: SCLC cell viability assay (CellTiter-Glo), NCI-H526. In kind it is cell-based. The following applies: NCI-H526, ADC treatment, 10 days; read-out: IC50, 50% growth inhibition. How it is done:
as §1, §2
Background: In ATP-based viability assays light output follows the ATP content of the culture.

In test [7] the test system is COR-L95. Briefly: SCLC cell viability assay (CellTiter-Glo), COR-L95. In kind it is cell-based. The settings on record: COR-L95, ADC treatment, 10 days; read-out: IC50, 50% growth inhibition. How it is done:
as §1, §2

The subject of test [8] is NCI-H146. Kind of test: SCLC cell viability assay (CellTiter-Glo), NCI-H146. The following applies: NCI-H146, ADC treatment, 10 days; read-out: IC50, 50% growth inhibition. In kind it is cell-based. How it is done:
as §1, §2

The test system of test [9] is H526 tumor. Kind of test: H526 cell-line derived xenograft (CDX) mouse model. In kind it is in vivo. Here is the method: as §3, §4, §5, §6
For test [10], the system named is NCI-H1963. Kind of test: SCLC cell viability assay (CellTiter-Glo), NCI-H1963. In kind it is cell-based. The following applies: NCI-H1963, ADC treatment, 10 days; read-out: IC50, 50% growth inhibition. Here is the method:
as §1, §2

Test [11] concerns NCI-H524. Briefly: SCLC cell viability assay (CellTiter-Glo), NCI-H524. In kind it is cell-based. The settings on record: NCI-H524, ADC treatment, 10 days; read-out: IC50, 50% growth inhibition. How it is done:
as §1, §2

The test system of test [12] is LU149 SCLC PDX tumor. Kind of test: LU149 patient-derived xenograft (PDX) mouse model. In kind it is in vivo. The following applies: LU149, single ip dose. Here is the method: as §7, §8
For test [13], the system named is SBC-5. Kind of test: SCLC cell viability assay (CellTiter-Glo), SBC-5. In kind it is cell-based. The following applies: SBC-5 (SEZ6 negative), ADC treatment, 10 days; read-out: IC50, 50% growth inhibition. Here is the method:
as §1, §2

Setting [14] is: single agent, H1963 tumor bearing mice.

What is called IC50 is the concentration that gives 50% inhibition.

Several values for one entry are separate records, joined by “and”; a condition that tells them apart may be missing. Equal values may be shown once.

B1: ADC-1 (conjugate)
heavy: EVQLVQSGAEVKKPGESLKISCKGSGYSFTSSWINWVRQMPGKGLEWMGRIYPGEGDTNYNGNFEGQVTISADKSISTAYLQWSSLKASDTAMYYCTRGLVMDYWGQGTLVTVSS[human IgG1 constant region with changes not printed]
light: EIVLTQSPATLSLSPGERATLSCRASQSVDYNGISYMHWYQQKPGQAPRLLIYAASNVQSGIPARFSGSGSGTDFTLTISSLEPEDFAVYYCQQSIEDPPTFGGGTKVEIKRTVAAPSVFIFPPSDEQLKSGTASVVCLLNNFYPREAKVQWKVDNALQSGNSQESVTEQDSKDSTYSLSSTLTLSKADYEKHKVYACEVTHQGLSSPVTKSFNRGEC
B1: the half-inhibitory concentration (IC50) in [1] is > 100 nM; in test [6], 0.1 nM; in test [7], 0.33 nM and 0.29 nM; in [8], 0.05 nM; in test [10], 4.63 nM; in [11], 0.33 nM. Further, the IC50 in [13] is > 100 nM. Moreover, the “growth inhibitory IC50 against five SCLC cell lines positive for SEZ6 mRNA” value in test [2] (NCI-H524, NCI-H526, COR-L96, NCI-H146, NCI-H1963FP5) was “sub-to low-nM”. For the same molecule, the “activity in the two SCLC cell lines negative for SEZ6 mRNA” value in test [2] (SW-1271 and SBC-5) is reported as “not active”. The therapeutic response entry in test [3] (CDX, H1963) was “durable response (no detectable disease)”; in test [4], “durable response (no detectable disease)”; in test [12], “durable response (no detectable disease)”. For the same molecule, the figures for the “TGD (tumor growth delay)” value in test [3] (setting [14]) and in [9] were > 472% and 336.7%, respectively. In addition, the “TGImax (maximum tumor growth inhibition)” value in [3] (setting [14]) is 94%; in [9], 97.4%. In [5], the “efficacy compared with topotecan (second line standard of care)” value is “more efficacious”. The “time with no measurable disease” value in test [9] (vehicle treated tumors grew to >2000 mm^3 in 17 days) is reported as > 30 days.
